# Laboratory results: the BET-seq Pho4 binding data (Le et al. 2018)
# This is one part of the list. These are noisy estimates, calculated here from bound and input reads.
# Target: T1, Pho4 (S. cerevisiae) (UniProt P07270)
# T1 sequence: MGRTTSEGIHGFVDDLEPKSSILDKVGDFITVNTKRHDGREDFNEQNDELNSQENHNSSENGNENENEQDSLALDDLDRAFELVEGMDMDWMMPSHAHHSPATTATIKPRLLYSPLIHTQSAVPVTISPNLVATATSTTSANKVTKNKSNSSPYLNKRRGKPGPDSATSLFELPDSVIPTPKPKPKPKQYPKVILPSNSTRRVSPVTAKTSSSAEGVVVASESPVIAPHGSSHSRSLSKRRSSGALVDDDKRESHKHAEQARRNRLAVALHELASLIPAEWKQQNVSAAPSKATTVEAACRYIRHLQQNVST
# Experiment: relative binding free energy (BET-seq); higher = weaker binding
# Conditions: reference: library average
row,Sequence,relative binding free energy
1,CAGTTCACGTGTATGG,0.33 kcal/mol
2,GCTAGCACGTGGTGTA,-0.2 kcal/mol
3,GGATTCACGTGAATTT,0.58 kcal/mol
4,GGGTACACGTGAGCGG,0.33 kcal/mol
5,ATTATCACGTGTGTCG,0.13 kcal/mol
6,GTGCTCACGTGAGTTT,0.37 kcal/mol
7,GGTATCACGTGATCGG,0.31 kcal/mol
8,GGTGCCACGTGTGATA,0.01 kcal/mol
9,GATCGCACGTGGGGTA,-0.19 kcal/mol
10,GATATCACGTGGTTGG,0.2 kcal/mol
11,TGTATCACGTGCATTA,0.14 kcal/mol
12,TAATTCACGTGTTGAA,0.24 kcal/mol
13,AAGGTCACGTGGATGT,0.03 kcal/mol
14,CTGAGCACGTGCGTTG,-0.08 kcal/mol
15,TTTAGCACGTGGGCTG,-0.27 kcal/mol
16,GTTGACACGTGCTGCG,0 kcal/mol
17,GAATACACGTGTAGGG,0.22 kcal/mol
18,GGGGGCACGTGTCTGT,-0.08 kcal/mol
19,TGGGTCACGTGGAGTA,0.13 kcal/mol
20,ACGGGCACGTGTTGGT,-0.09 kcal/mol
21,GTAGGCACGTGTAAAT,0.13 kcal/mol

row,Sequence,relative binding free energy
1,TTATGCACGTGATGGC,0.02 kcal/mol
2,TTCGTCACGTGTTCTG,0.19 kcal/mol
3,GGAGGCACGTGGGATA,-0.22 kcal/mol
4,TTTCGCACGTGTGCTT,-0.01 kcal/mol
5,ATGCTCACGTGCGGGG,0.03 kcal/mol
6,AGAGGCACGTGGTCGG,-0.21 kcal/mol
7,GGTAACACGTGGGTTG,-0.12 kcal/mol
8,AGGAGCACGTGGTGTG,-0.19 kcal/mol
9,GTTATCACGTGGCAGT,-0.01 kcal/mol
10,GAGGTCACGTGGGCGG,0.04 kcal/mol
11,ATAATCACGTGTATGA,0.03 kcal/mol
12,AATTGCACGTGAAAGT,0.3 kcal/mol
13,TTGGGCACGTGATCAT,-0.12 kcal/mol
14,CCGTTCACGTGGGTTG,0.24 kcal/mol
15,GAGTGCACGTGTTGTA,0.04 kcal/mol
16,GTGGGCACGTGGCAGT,-0.15 kcal/mol
17,AATTTCACGTGCATGG,0.25 kcal/mol
18,AAAGCCACGTGGCGGG,-0.01 kcal/mol
19,GATCTCACGTGAGTGG,0.52 kcal/mol
20,GGAGGCACGTGAAGGG,0.24 kcal/mol
21,GAGTTCACGTGGGTGC,0.32 kcal/mol

row,Sequence,relative binding free energy
1,TTGCACACGTGGGGGA,-0.09 kcal/mol
2,TCGTACACGTGGTTGA,-0.02 kcal/mol
3,GGGTACACGTGGTATT,0.12 kcal/mol
4,TCAGGCACGTGTTGCG,0 kcal/mol
5,AGGAACACGTGGTTGT,-0.05 kcal/mol
6,GTGTGCACGTGGGAAT,0.02 kcal/mol
7,ATCTTCACGTGGTTGT,0.2 kcal/mol
8,TGGGGCACGTGGTGAC,-0.16 kcal/mol
9,GGGGTCACGTGAAGCT,0.46 kcal/mol
10,AGTTTCACGTGCTAGG,0.14 kcal/mol
11,AGGGGCACGTGAGCAT,-0.04 kcal/mol
12,TTTGCCACGTGTTAGT,-0.04 kcal/mol
13,TAGGGCACGTGCTTGG,-0.27 kcal/mol
14,AGGTGCACGTGTTTCA,-0.15 kcal/mol
15,AGAGGCACGTGAAAAG,0.24 kcal/mol
16,CGGTTCACGTGTGGTT,0.35 kcal/mol
17,CTATGCACGTGTTAAG,-0.02 kcal/mol
18,TGGTTCACGTGCTTGC,0.16 kcal/mol
19,AGAGGCACGTGTTTGA,-0.2 kcal/mol
20,TCTGGCACGTGGTTTC,-0.14 kcal/mol
21,TGGGTCACGTGGTCTC,-0.03 kcal/mol
